Laboratory results: the supplement of paper PMC11417369
This is one part of the list.

system: PF3D7_0420300 AP2 domain 1 (GST-tagged); assay: gcPBM binding intensity (ln(normalized median fluorescence intensity)); higher = stronger DNA binding
How it was run: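 In this array assay, P. falciparum DNA-binding domains with a GST tag, expressed in E. coli, were applied for 1 h to primer-extended double-stranded 36-bp intergenic genomic probes and negative controls on an Agilent 4 × 180k array. Bound protein was visualised with Alexa488 anti-GST antibody at 488 nm. Binding intensity is the highest Masliner-normalised natural-log median intensity across replicate spots of either probe orientation.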

Sequence	gcPBM binding intensity (ln)
AATAAATAAATAAATAAATATATATATATATATATA [GTGCAC_negctrl_site224]	9.07
TTATATTAAAAAAGATGTACGTTTAGGAAAAATATA [XGTACX_site7456]	9.09
CTTGAAAAAATAAAAACACACAATGTGTTTTTGAAT [CACACA_site3283]	9.18
ATAAAAATAAACATACGTACTTACACGAATATACAT [XGTACX_site5989]	9.55
TTAGATTTAAATATCATACACACTTTATATATAATA [CACACA_site959]	9.29
ATATTACTATATTATTGTACGTTAAAAAAAAAAAAT [XGTACX_site8734]	9.22
TTTCTAAATAATTATAATGAATCTGCAAACAAGCAT [XGTACX_negctrl_site391]	8.9
TATAATAATCTAATCTGTAGTTTTTTTTTTTTTTTT [CACACA_negctrl_site1206]	9
GGCTTTTTTTAATATGCACACATATATTTTATATAT [CACACA_site8647]	9.46
AAAAAAAAACAGAAAACACACAAATTATCTTATAAT [CACACA_site4326]	9.71
TGTATATATATCTCAGTGCATTGCAAATTAAAAATT [GTGCAC_site9646]	8.99
ATACTCACGTGACACACACACAATATAAATAAATAT [CACACA_site7862]	10
GCTTGTACATTTTTAAAAAATGACTTCGAAAGGAAT [CACACA_negctrl_site453]	8.92
TTCCTTATTATTATTTTACACACGTCCTAATAAGAG [CACACA_site8364]	9.49
TTTATGCATAGAGAAACATGCAAGAAAGATGCAAAA [TGCATGCA_site726]	9.03
ATTATGTATACATAAACACACATATTTATAAAAAAA [CACACA_site6261]	9.37
ATATATTTATATATATGTACATATTATGTTAAGAAA [XGTACX_site1111]	9.08
TATGTATTCATATGTTGTACATTATATATAATAAGT [XGTACX_site6589]	9.16
AGCACACAAAAAAAAAAAAAAAAAAAAAAAGGAATG [GTGCAC_negctrl_site73]	9.15

Sequence	gcPBM binding intensity (ln)
AAATCAGAACCTATTTGTACATATACAAAAATGATT [XGTACX_site2421]	9.16
CATATGTAGGGAACAATATAATATGCTTTGAATATG [GTGCAC_negctrl_site524]	9.24
TTTTAATTAGCTAGACGTACAATAATATACAAATAT [XGTACX_site6068]	9.11
ATTTTTTTAAGATAAGAAAAATAAAGTGTGGATATT [XGTACX_negctrl_site476]	9.22
TATTAACAAATTTATGTGCACTGAGGACAAATATAT	9.43
ATTTATATCTCCATATGTTCAAAACTTTCACAAATA [TGCATGCA_negctrl_site108]	9.07
AAAATAAGTAATTACTAATATATAAATTAATAATTA [CACACA_negctrl_site1602]	9.15
AATATAAATTAATTTACACACTAAAAAATATATATA [CACACA_site3778]	9.39
TTTATTAATAAACACACACACACACCCAAAATAAAA [CACACA_site7966]	10.2
TTTTCTTCATAAATGCTGCACTGGTTTAAGCATGAT	8.88
AAATAGAAGAAATATGCACACATACATTGAAATGTT [CACACA_site7996]	9.46
AAAGAAAAAAAAATTACACACATATATTATATATAT [CACACA_site3211]	9.52
CCTTAATATTTTTGAAGTACATATTTATTTTACAAG [XGTACX_site3049]	9.14
TTAATATGAAATAAATGTACATAATACATAATAAAA [XGTACX_site6194]	9.29
GTTTTTAGTATTTTTTGTACTTAATACATAGCCTTA [XGTACX_site7318]	9.23
AATTGAAAAATATATAAGAAGAAATATATATATGTT [GTGCAC_negctrl_site97]	9.32
AACACGCGCGGACACACACACACACCCACATATATA [CACACA_site5252]	10.4
ACCATATAAATAAACACACACACACCGATATATATA [CACACA_site5310]	10.1
AAAAAACAAAAAAAAAAAAAAATAATACAATATAAT [CACACA_negctrl_site1630]	9.49

Sequence	gcPBM binding intensity (ln)
TATAATGAACATATGTGTACATATATTTTTTAAATT [XGTACX_site8736]	9.11
GCACAACATATATTATCACACACATATATATATATA [CACACA_site8619]	9.74
CAAAAGAATATATGTAGTACATGTTGTAGATAATAT [XGTACX_site1044]	9.46
CGCGAAGTAGCATTCACACACAGCAAAATATAAATA [CACACA_site7608]	9.6
TCAGATATATAGAATACACACATGGATATAAGAAAT [CACACA_site7831]	9.77
TTTTTGTAATATTATGATGTCATATATATATATATA [XGTACX_negctrl_site618]	9.12
ATATTTTGTAACTATACACACATATATATATTATAA [CACACA_site3062]	9.56
AAATTGGGTACAAATACACACACATATATATATTAA [CACACA_site8745]	9.83
ATAGATCCTAATGTTGTGCACATGTAAATTAATATA	9.3
TTTATACAATAAAATGCATGCAAGTATCTATTTTAT [TGCATGCA_site210]	9.23
ATCATATAAACATATTGTACTTAAATACATAATATT [XGTACX_site3800]	9.13
CAAACCCACGGACACACACACACAAAAATGATTAAA [CACACA_site5365]	9.93
TTTATTTATTTATGTGGTACTTCAAAAATATATACT [XGTACX_site355]	9.32
GGATACGCTTTTGTACCACTCCCCCTTTTGGGAATA [CACACA_negctrl_site1363]	9.07
ATATATATATATAGTGCACACTTAAGAATATAAAGA [CACACA_site4771]	9.43
TGTTATATAATTTAGCGTACAGGTTATAGGACGGAT [XGTACX_site8823]	9.51
AACTATTACTTTCTTTCACACATTTTTTTTTTTTTT [CACACA_site5355]	9.66
AACTCTTAGAATGACGGTACAGTATAATAGGTGAAC [XGTACX_site7163]	9.4
